Assay results: ChEMBL document CHEMBL4888484, “Replenishing the malaria drug discovery pipeline: Screening and hit evaluation of the MMV Hit Generation Library 1 (HGL1) against asexual blood stage Plasmodium falciparum ,using a nano luciferase reporter read-out” (2022)
The campaign covered roughly 150,000 compounds. About 540 (0.36%) showed an effect of 50% or more. This is one part of the list.

test system: Plasmodium falciparum; test: Primary screen in NF54 nanoGlo assay, in single point, at 2uM, 72h; a lower Z score goes with more inhibition; format: functional, Erythrocyte; details: timepoint 72 hour

| SMILES | % Inhibition | Z score |
| --- | --- | --- |
| Cc1ccnc(N(C)CCc2c(C)n[nH]c2C)n1 | 4% | -0.71 |
| O=C(COc1ccccc1F)NC(CO)C(O)c1cccnc1 (stereo unspecified) | -13% | 1.72 |
| O=C1NCCC[C@H]1c1ncnn1CC(F)(F)F | -15% | 1.7 |
| Cc1noc(C)c1CN1C(=O)[C@@H]2CC[C@H]1CN(c1nc3ccccc3s1)C2 | 0% | 0.03 |
| CCc1cc(C(=O)NCc2cc(C)nn2C)on1 | -17% | 1.8 |
| OCCN(CCO)C[C@H](O)COc1c(Br)cc(Br)cc1Br | -7% | 1.05 |
| Cc1cc(C(=O)N2CCOC[C@@H](C3CCC3)C2)on1 | 3% | -0.39 |
| O=C(Nc1n[nH]c(Cc2ccc(F)cc2)n1)[C@H](c1ccccc1)n1cnnn1 | -8% | 1.12 |
| OC1(c2cccc(Cl)c2)CCC(NCc2cnc3n2CCCC3)CC1 (stereo unspecified) | -4% | 0.8 |
| Nc1c(NC(=O)Nc2ccc(F)cc2)c(-c2ccccc2)nn1-c1ccccc1Cl | 3% | -0.52 |
| CC(C)[C@@]1(O)CN(Cc2cccc(OCCO)c2)C[C@@H]1C | -16% | 1.38 |
| CN(C)CCNC(=O)c1ccc2c(c1)n(CC1CC1)c(=O)n2C1CCCCC1 | 4% | -0.67 |
| CC(=O)N1CC[C@H](c2nnc(C(C)(C)C)o2)C1 | 11% | -1.28 |
| CC(C)CC(=O)Nc1ccc2c(c1)C(N1CCC(C)CC1)=Nc1ccccc1O2 | 31% | -4.21 |
| Cc1nc2c(C)cccc2cc1C(=O)N1CC[C@H](CS(N)(=O)=O)C1 | -23% | 2.43 |
| O=C(Nc1cc(C(F)(F)F)ccc1N1CCOCC1)c1cccc(S(=O)(=O)N2CCOCC2)c1 | 4% | -0.72 |
| Cc1cc(C)c2c(CC(=O)N3CCc4nocc4C3)coc2c1C | -1% | 0.09 |
| C[C@@H](C(=O)N1CC(=O)Nc2ccccc21)N1CCN(Cc2ccc3c(c2)CCO3)CC1 | -5% | 0.94 |
| COc1ccc(C(=O)NCc2cnc(C)cn2)cc1OC1CCN(C(C)C)CC1 | -14% | 1.29 |
| CNS(=O)(=O)CCNC(=O)Nc1ccc(Cl)cc1C(F)(F)F | 4% | -0.65 |
| COCc1cc(O)n2ncc(S(=O)(=O)c3ccccc3)c2n1 | -3% | 0.32 |

| SMILES | % Inhibition | Z score |
| --- | --- | --- |
| Cc1cccc(S(=O)(=O)NCC(C)(C)C[C@H](C)O)c1Cl | 3% | -0.45 |
| Cc1nc2ccccc2c(=O)n1C1CCCCCC1 | -4% | 0.59 |
| Cc1nc(CN(CC2CCN(C3Cc4ccccc4C3)CC2)C[C@H]2CCCO2)c[nH]1 | -4% | 0.38 |
| COCC(=O)N[C@@H]1CN(C(=O)c2cccc3cn[nH]c23)C[C@H]1c1ccnn1C | 4% | -0.51 |
| Cc1cc(C)c(C(=O)NC2CN(Cc3ccccc3)CCC2CO)[nH]1 (stereo unspecified) | -6% | 0.97 |
| COC(=O)C1CC(Oc2ccccc2F)CN1C(=O)CCc1c(C)noc1C (stereo unspecified) | -2% | 0.39 |
| Cc1cccc2c1OC[C@@H](NC(=O)N1CCC(CS(C)(=O)=O)CC1)C2 | -6% | 0.71 |
| Cc1cnc(NC(=O)c2ccc3ncoc3c2)c(Br)c1 | 38% | -1.37 |
| O=C(Nc1ccc(Cl)cc1)Nc1ccc(N2CCN(Cc3ccccc3)CC2)c(C(=O)NC2CCCCC2)c1 | 9% | -1.52 |
| Cc1nsc2ncc(C(=O)N3CCCC3)c(N3CCC(C(=O)Nc4ccccc4C(F)(F)F)CC3)c12 | 10% | -1.68 |
| COc1ccc(OC)c(N2CCN(C(=O)c3ccccc3Cl)[C@@H](C)C2=O)c1 | -13% | 2.33 |
| O=C(CC1CCCCC1)NC1CCN(c2ccc3nccn3n2)CC1 | 1% | -0.14 |
| CO[C@H]1COC[C@H]1NC(=O)N1CCS(=O)(=O)CC1C1CCC1 (stereo partly specified) | -7% | 1.34 |
| Fc1ccc2c(c1)CCN(Cc1nc(C3CC3)no1)C2 | -7% | 0.81 |
| COc1cccc2c1CCC[C@H](Nc1ncnc3c1cnn3C)C2 | -2% | 0.36 |
| CC(C)Oc1ccc(N2C[C@@H](C(=O)NCCc3cnccn3)CC2=O)cc1 | -1% | 0.15 |
| CC#CC[C@@H](CO)NCc1ccc(Cl)s1 | -13% | 1.84 |
| C[C@@H](c1ccc(S(C)(=O)=O)cc1)n1ccnc1-c1cc2ccccc2o1 | -9% | 1.54 |
| O=C(NC[C@H]1CCCOC1)c1ccc(-c2cc(O)c(F)c(F)c2)cc1 | -7% | 1.27 |
| COc1ccc(OC)c([C@H](C)NC(=O)c2ncoc2-c2ccco2)c1 | -10% | 1.4 |
| CCOc1ccc(NC(=O)N2CCC3(CC2)C(=O)N(CC(=O)NCc2ccccc2)CN3c2ccccc2)cc1 | -9% | 0.81 |

| SMILES | % Inhibition | Z score |
| --- | --- | --- |
| O=C1CC[C@@]2(CCCO2)CCN1Cc1ccccn1 | -10% | 1.96 |
| O=C(c1ccccc1)N(Cc1csc(COc2ccc(Cl)cc2)n1)C1CC1 | -5% | 0.6 |
| CN(CCN1CCCCCC1)c1cc([C@H]2CCOC2)nc(N2CC(O)C2)n1 | 6% | -0.89 |
| CCCN(C)[C@@H](C)C(=O)NCc1ccccc1 | -9% | 1.3 |
| Cc1ccc(-n2c(C)ccc2C)c(C(=O)Nc2ccc(N3CCNC(=O)C3)nc2)c1 | 0% | -0.04 |
| COc1ccc(C(=O)N2CCCN(CC(=O)N3CCCC3)CC2)cc1OC(F)F | -4% | 0.47 |
| NC(=O)COc1ccc(S(=O)(=O)N[C@H]2CCN(Cc3ccsc3)C2)cc1 | -11% | 1.72 |
| COCCn1nnnc1[C@]1(N(C)C)CCN(C(=O)c2sc(C)nc2C)C1 | -11% | 1.34 |
| CCC(=O)Nc1c(C)nc(N2CCCC2)nc1C | -3% | 0.45 |
| O=C(NC1Cc2ccccc2C1)c1ccccc1[C@H]1CCNC1 | -7% | 1.43 |
| CCCOc1ccc(-c2cccc(-c3cc[nH]n3)c2)cc1CO | 3% | -0.65 |
| Cc1csc(NC(=O)Cn2c(-c3ccncc3)nc3ccccc32)n1 | 4% | -0.48 |
| Cc1c(C(=O)NCCN2CCCC2)cnn1-c1nccc(-c2ccccc2F)n1 | -8% | 1.6 |
| CN(CCC1CCCCC1)C(=O)NCc1ccccn1 | -12% | 1.46 |
| O=C([C@@H]1CCCN1C(=O)Nc1ccccc1)N1CCOc2ncccc2C1 | -4% | 0.55 |
| COC[C@@H]1CCCN1CC(=O)Nc1cccc(F)c1C | -4% | 0.34 |
| CN(C)CCN(Cc1cccnc1)C(=O)c1ccc(N(C)C)nc1 | 3% | -0.54 |
| Cc1ccc(C(=O)N(CCN(C)C)Cc2ccccc2)c(C2CCN(S(=O)(=O)c3ccccc3)CC2)n1 | -11% | 1.07 |
| COc1ccc(CNCc2nnc3n2CCOCC3)c(Cl)c1 | -3% | 0.43 |
| COc1ccccc1NC(=O)[C@H]1CC12CCN(Cc1cccc(OCCO)c1)CC2 | -4% | 0.61 |
| CCn1ncc(C)c1NS(=O)(=O)CCc1cccc(F)c1 | 1% | -0.25 |

| SMILES | % Inhibition | Z score |
| --- | --- | --- |
| CCCCN1CCN(C[C@H](O)CO)CC1=O | -17% | 1.53 |
| CCc1cccnc1C(=O)Nc1cnn(CC(=O)N2CC(C)OC(C)C2)c1 (stereo unspecified) | -1% | 0.19 |
| Cc1ccc(C)c(C(=O)c2ccccc2C(=O)N2CC[C@@H](N)C2)c1 | -10% | 1.13 |
| CCOC(=O)[C@@H](N)C1(OCC)CCCC1 | 1% | -0.21 |
| COc1ccc(C)cc1S(=O)(=O)[C@H]1CS(=O)(=O)C[C@@H]1NC1CCCC1 | 10% | -1.34 |
| O=C(Nc1cccc(Cl)c1)N1CCc2c(c3ccccc3n2CC2CC2)C1 | -8% | 1.03 |
| CCn1ccnc1CN[C@H]1CCCc2nc(-c3cccnc3)ncc21 | 3% | -0.33 |
| CN1CN(C(=O)c2ccc3c(c2)C(C)(C)C(=O)N3)CC1=O | -6% | 1.03 |
| COc1ccc(-c2cc(C(F)(F)F)nc(-n3nc(-c4ccc(Cl)cc4)cc3-c3ccc(Cl)cc3)n2)cc1 | -12% | 2.27 |
| O=C(Nc1ccccc1C(F)(F)F)c1ccccc1N1C(=O)C2CC=CCC2C1=O (stereo unspecified) | -15% | 2.08 |
| O=C(NCc1cc2n(n1)CCNC2)Nc1ccccc1C(F)(F)F | 14% | -1.89 |
| COCc1nc(C(=O)NCC2(c3ccc(C)cc3C)CC2)co1 | -4% | 0.51 |
| CC(=O)N[C@H]1CN(C(=O)c2ccc3c(c2)OCO3)C[C@@H]1c1ccc(C)cc1 | -3% | 0.53 |
| CCc1c(C(=O)N2CC(C)(C)[C@@](C)(O)C2)csc1C | -18% | 1.58 |
| CC1(CO)CCCC1NCC(C)(O)C(F)(F)F (stereo unspecified) | 33% | -3.73 |
| O=C(N[C@@H](Cc1c[nH]c2ccccc12)C(=O)Nc1ccncc1)OCc1ccccc1 | 5% | -0.53 |
| COCc1nc(C(=O)Nc2onc(C3CCCCC3)c2C)cs1 | 3% | -0.37 |
| CC1CCN(C(=O)c2ccccc2NC(=O)c2cccs2)CC1 | -9% | 1.79 |
| COc1ccc(NC(C)=O)cc1NC1CC(C)N(C2CC2)C1 (stereo unspecified) | 2% | -0.27 |
| c1ccc(-c2nc(COc3ncnc4scc(-c5ccccc5)c34)cs2)cc1 | -7% | 1.14 |
